Experimental data taken from paper PMC4336329 (PLoS ONE, 2015).
Out of some 310,000 compounds screened, about 2,200 (0.71%) showed an effect of 50% or more. The effect is printed as a negative number. The list shows a part of the results.

What follows are compounds tested against human ether-à-go-go-related gene (hERG) potassium channel (human, UniProt Q12809) (assay: primary screen, population patch clamp on CHO cells stably expressing hERG).
Sequence of human ether-à-go-go-related gene (hERG) potassium channel (Q12809 whole entry, looked up): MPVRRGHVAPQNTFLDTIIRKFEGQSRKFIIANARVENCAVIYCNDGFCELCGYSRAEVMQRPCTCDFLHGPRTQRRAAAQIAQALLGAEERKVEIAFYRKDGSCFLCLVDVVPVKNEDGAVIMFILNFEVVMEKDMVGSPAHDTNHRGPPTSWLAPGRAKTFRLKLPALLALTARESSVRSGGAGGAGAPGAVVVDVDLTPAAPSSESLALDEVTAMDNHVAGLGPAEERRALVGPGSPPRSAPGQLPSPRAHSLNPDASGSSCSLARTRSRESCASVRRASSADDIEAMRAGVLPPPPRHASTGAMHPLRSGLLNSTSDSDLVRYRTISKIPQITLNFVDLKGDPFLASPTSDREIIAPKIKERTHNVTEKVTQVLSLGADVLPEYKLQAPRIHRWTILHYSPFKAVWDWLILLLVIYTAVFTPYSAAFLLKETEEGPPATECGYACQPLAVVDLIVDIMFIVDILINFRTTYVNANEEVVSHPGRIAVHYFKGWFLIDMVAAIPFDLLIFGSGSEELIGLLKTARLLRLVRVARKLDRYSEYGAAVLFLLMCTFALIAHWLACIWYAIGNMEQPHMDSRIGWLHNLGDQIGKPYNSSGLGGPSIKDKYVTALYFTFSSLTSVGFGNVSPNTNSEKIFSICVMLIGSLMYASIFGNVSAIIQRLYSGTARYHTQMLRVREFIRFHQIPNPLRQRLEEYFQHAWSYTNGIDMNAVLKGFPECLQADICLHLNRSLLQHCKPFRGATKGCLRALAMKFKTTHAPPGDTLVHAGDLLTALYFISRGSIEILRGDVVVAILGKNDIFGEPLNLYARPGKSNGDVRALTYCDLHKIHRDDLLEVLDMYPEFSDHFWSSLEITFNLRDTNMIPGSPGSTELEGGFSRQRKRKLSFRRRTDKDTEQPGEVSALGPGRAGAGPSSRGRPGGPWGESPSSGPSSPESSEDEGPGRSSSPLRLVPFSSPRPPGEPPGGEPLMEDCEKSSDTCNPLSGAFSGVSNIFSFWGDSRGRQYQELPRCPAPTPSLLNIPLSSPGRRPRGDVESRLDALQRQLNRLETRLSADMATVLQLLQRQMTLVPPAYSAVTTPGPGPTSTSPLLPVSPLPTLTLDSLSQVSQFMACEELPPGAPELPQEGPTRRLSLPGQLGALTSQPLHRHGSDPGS

| SMILES | hERG current change (%, negative = inhibition) at 1uM |
| --- | --- |
| Cc1cccc(N(CC(=O)NCc2ccccc2)C(=O)Cn2nnc(-c3ccc(C)o3)n2)c1 | -3.56% |
| CCOc1ccc(NC(C)=O)cc1[N+](=O)[O-] | 5.43% |
| COc1ccccc1NC(=O)Cc1cccc2ccccc12 | 15.1% |
| [N-]=[N+]=NC[C@H](Cc1ccccc1)N1CC[C@@H](O)CCC1=O | 0.688% |
| CCCCS(=O)(=O)N1CCC(C(=O)Oc2ccccc2OC)CC1 | 14.3% |
| CSCc1nnc(NC(=O)c2ccc(S(=O)(=O)N3CCCCC3C)cc2)o1 (stereo not shown) | 7.3% |
| COC(=O)c1c(C(=O)OC)c2ccccn2c1C(=O)c1ccccc1 | 18.7% |
| COc1ccccc1N1CCN(/N=C/c2cc([N+](=O)[O-])ccc2Cl)CC1 | 18.1% |
| CCCNC(=O)c1ccc(COc2ccc(C)cc2)o1 | 9.22% |
| O=C(CNS(=O)(=O)c1ccccc1)Nc1cccc([N+](=O)[O-])c1 | -7.15% |
| CCC[C@@H](O)c1cc2cc(OC)c(OC)cc2c(=O)o1 | 7.12% |
| CC(C)(C)n1nnnc1C(c1ccc(C#N)cc1)N1CCCC2(CCCCC2)C1 (stereo not shown) | 8.24% |
| Cl.O=C(COc1ccc(Cl)cc1)N(c1ccc(Cl)cc1)C1CN2CCC1CC2 (stereo not shown) | -22.4% |
| CCCCCCc1cc2cc(C(=O)Nc3ccccc3OC)c(=O)oc2cc1O | 15.3% |
| CCOc1ccc(S(=O)(=O)Nc2ccc3c(c2)OCO3)c2cccnc12 | 5.43% |
| O=C(N/N=C/c1c(Cl)cccc1Cl)c1ccc(-n2cnnn2)cc1 | 9.97% |
| CCc1cc(C(=O)Nc2ccc(OC)nc2)sc1C | -9.92% |
| CC(NC(=O)c1cc(S(=O)(=O)N(C)C)ccc1Cl)c1ccc(-n2ccnc2)cc1 (stereo not shown) | -55.3% |
| COc1ccc(Cc2nnc(-c3ccccc3)o2)cc1 | -2.61% |
| Cc1nn(CC(=O)c2ccccc2Cl)c(C)c1[N+](=O)[O-] | 8.46% |
| Cc1ccc(Cn2c(N)c(S(=O)(=O)c3cccs3)c3nc4ccccc4nc32)cc1 | 5.35% |
| COC(=O)C1C2C=CC3(CN(c4cccc(C)c4)C(=O)C13)O2 (stereo not shown) | 12.7% |

| SMILES | hERG current change (%, negative = inhibition) at 1uM |
| --- | --- |
| COc1ccccc1NC(=O)CCC(=O)O | 16.8% |
| O=C(Nc1cc(S(=O)(=O)N2CCOCC2)ccc1N1CCOCC1)C1CCCO1 (stereo not shown) | 4.92% |
| Cc1cc2c(cc1S(=O)(=O)NCc1ccccc1)OCC(=O)N2 | -7.7% |
| Cc1nn(CCCC(=O)NCc2ccccc2Cl)c(=O)c2nccn12 | 12% |
| CCCNC(=S)Nc1c(C)n(C)n(-c2ccccc2)c1=O | 7.69% |
| CCCc1cc(=O)[nH]c(SCC(=O)CSc2nc(CCC)cc(=O)[nH]2)n1 | 10.1% |
| Cc1ccc(-c2nnc(Sc3nc4ccccc4o3)c3ccccc23)cc1 | 10.8% |
| O=C1CCC/C(=N/NC(=O)c2cc(NS(=O)(=O)c3cccs3)cc(NS(=O)(=O)c3cccs3)c2)C1 | 12.4% |
| CCOC(=O)C1(CCc2ccccc2)CCN(Cc2nccn2CC)CC1 | -47.2% |
| CC(NC(=O)C(=O)N1CCCCC1)C(c1cccs1)N1CCN(Cc2ccccc2)CC1 (stereo not shown) | 8.49% |
| CCCc1ccc(C(=O)[C@@H]2[C@@H](C(C)=O)N3c4ccc(F)cc4C=C[C@@H]3[C@@]23C(=O)Nc2ccccc23)cc1 | 9.46% |
| CCCCNC(=O)c1ccccc1Cl | 22.8% |
| N/C(Cn1cncn1)=N\OC(=O)c1ccc(Cl)cc1Cl | 5.16% |
| CC(=O)NC1C(OC(=O)/C=C/c2ccccc2)OC(COC(C)=O)C(OC(C)=O)C1OC(C)=O (stereo not shown) | -5.25% |
| COc1ccc(OCCC(=O)OCC(=O)NCc2ccccc2OC)cc1 | -4.71% |
| COC(=O)CC1C(=O)NCCN1C(=O)CSc1nnnn1-c1ccc(Cl)cc1 (stereo not shown) | 13.7% |
| Cc1ccc(C)c(NC(=S)NCc2ccc3c(c2)OCO3)c1 | 10.8% |
| CCOC(=O)CNC(=O)COc1coc(CN2CCN(Cc3ccccc3)CC2)cc1=O | 7.22% |
| COc1ccc(CCN(C)Cc2nc(Cc3ccc(OC)c(OC)c3)no2)cc1OC | 13.3% |
| CCn1cc(CN2CCC(C(=O)Nc3cccc(-c4cccc(OC)c4)c3)CC2)c(C)n1 | -3.78% |
| CC(C)(C)[C@@H]1C=C(C(N)=O)O[C@H](OCc2ccc(CO)cc2)C1 | 6.33% |
| Cc1ccc(CN2CCNC2=O)cc1 | -6.74% |

| SMILES | hERG current change (%, negative = inhibition) at 1uM |
| --- | --- |
| O=C(OCC(=O)N1CCCc2ccccc21)c1cc(Br)ccc1O | 8.99% |
| C=CCC(Nc1ccco1)c1ccccc1.Cl (stereo not shown) | -7.38% |
| CCOc1ccc(-n2c(Cc3cc(=O)[nH]c(=O)[nH]3)nnc2SCc2cccnc2)cc1 | 9.65% |
| Cc1ccc(C)c(Nc2cc(C)nc(-c3ccccc3O)n2)c1 | 10.3% |
| CC1CCN(CCCNc2cc(NCCO)c([N+](=O)[O-])c3nonc23)CC1 | 15.9% |
| CCN(Cc1ccccc1)C(=O)c1ccc2c(=O)n3c(nc2c1)CCC3 | 9.35% |
| CN1CCC(N(C)C(=S)NCCc2ccccc2)CC1 | -7.15% |
| Clc1ccc(-c2nc3ccc(Cl)cn3c2CN2CCOCC2)cc1 | 3.1% |
| Cc1cc([N+](=O)[O-])nn1CC(=O)N/N=C/c1ccc(O)cc1O | 2.26% |
| Cc1ccc(CNC(=O)c2nnc(Cc3ccc(Cl)cc3)o2)cc1 | 9.43% |
| O=C(/C=C/Nc1ccc(S(=O)(=O)Nc2cnc3ccccc3n2)cc1)c1cccnc1 | 3.32% |
| Cc1cc(OCc2nc(-c3ccc(NC(=O)c4cccnc4)cc3)no2)ccc1Cl | 12% |
| COc1ccc(CNC(=O)C2CSC(c3ccc(OC)cc3)N2C(C)=O)cc1 (stereo not shown) | 5.4% |
| NNC(=O)C1c2ccccc2Oc2ccccc21 | 15% |
| NC(=O)CC(NC(=O)c1ccccc1)c1ccc(NCc2ccccn2)c([N+](=O)[O-])c1 (stereo not shown) | 7.17% |
| O=C(C1CC1)N1CCN=C1SCc1ccccc1Cl | -1.4% |
| O=C(O)CSCC(=O)Nc1cccc2ccccc12 | 12.3% |
| Cc1cc(=O)oc2cc(OCC(=O)N(C)C3CCS(=O)(=O)C3)c(Cl)cc12 (stereo not shown) | 23.2% |
| Cc1cccc(N2CC(C(=O)Nc3ccc(S(=O)(=O)N4CCCCC4)cc3)CC2=O)c1C (stereo not shown) | 13.7% |
| COc1ccc(CC(=O)N2CCN(C)CC2)cc1OC.Cl | 21.8% |
| O=C(COc1cccnc1[N+](=O)[O-])Nc1ccc(Cl)c(S(=O)(=O)N2CCOCC2)c1 | 0.862% |
| CCc1ccc(N(CC(=O)NC2CC2)S(=O)(=O)c2ccc(C)cc2)cc1 | -0.674% |

| SMILES | hERG current change (%, negative = inhibition) at 1uM |
| --- | --- |
| Cc1ccccc1OCC(O)Cn1c(NCc2ccco2)nc2c1c(=O)[nH]c(=O)n2C (stereo not shown) | 6.34% |
| Cc1c(C)n(O)c2ccc3nonc3c12 | 14% |
| Cc1ccccc1OCCCC(=O)Nc1nncs1 | -10.7% |
| Cc1cc(C)n(-c2nc(NCCCO)c3c4c(sc3n2)CCCC4)n1 | -4.37% |
| O=C(N/N=C/c1cccc(F)c1)c1ccc(Cl)cc1 | 8.4% |
| Cl.O=C(CN1CCC(C(=O)c2cccc(F)c2)CC1)NCc1cccs1 | -10.3% |
| CCCCN1C(=O)C(=O)N(CC(=O)N2N=C3/C(=C/c4ccco4)CCCC3C2c2ccco2)C1=O (stereo not shown) | -11.4% |
| CCOC(=O)C1=C(C)N(C)C(=S)NC1c1c(OCC)ccc2ccccc12 (stereo not shown) | 5.45% |
| C#CCn1c(=NC(=O)c2sc3ccccc3c2Cl)sc2cc(S(N)(=O)=O)ccc21 | 4.14% |
| COc1cccc(/C=N/NC(=O)CO/N=C(\C)c2cccs2)c1OC | 3.29% |
| CCOc1cc(CNCc2ccc3c(c2)OCO3)ccc1OC.Cl | 4.69% |
| COc1ccc(-c2noc(N3CCC(C(=O)NCCCN4CC(C)CC(C)C4)CC3)n2)cc1 (stereo not shown) | 7.61% |
| CS(=O)(=O)N(CCc1ccccc1)CC(=O)NCc1ccccn1 | 12.9% |
| CCOC(=O)C1CCCN(Cc2ccc(-c3ccccc3)cc2)C1 (stereo not shown) | 11.7% |
| CCOCCCNC(=O)c1cn(C)c2ccc(S(=O)(=O)N3CCCCC3)cc2c1=O | 9.18% |
| Cc1cccc(NS(=O)(=O)c2cc(C(=O)N3CCc4ccccc4C3)ccc2Cl)c1C | 0.0921% |
| Cc1c(NC(=S)NC(C)(C)C)c(=O)n(-c2ccccc2)n1C | -0.627% |
| CCN(CC)S(=O)(=O)c1ccc(N2CCCC2)c(NS(=O)(=O)c2cccs2)c1 | 3.62% |
| CC(=O)c1cccc(NC(=S)NC(=O)Cc2ccccc2)c1 | 9.53% |
| CCOC(=O)c1[nH]c(C)c(C(=O)N2CCN(C(=O)c3ccco3)CC2)c1C | 14% |
| O=C(c1ccc(S(=O)(=O)N2CCOCC2)cc1)N(Cc1ccco1)Cc1cccs1 | 3.74% |
| Cc1cccn2c(=O)c3cc(C(=O)N4COCC4(C)C)n(Cc4ccccc4)c3nc12 | 8.93% |
